# Laboratory results: the RNAGym collection of RNA variant scans (doi:10.1093/nar/gkz1192)
# The source gives no read counts; variants with many changes may rest on few reads.
# B1: CPEB3 Ribozyme (parent)
# chain: UAACAGGGGGCCACAGCAGAAGCGUUCACGUCGCAGCCCCUGUCAGAUUCUGGUGAAUCUGCGAAUUCUGCUGUAUAUCUC
# Variants of: B1
# Assay: self-cleavage, relative activity (ratio to wild type); higher = more cleavage; in vitro, sequencing
# Summary of the method: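 Barcoded CPEB3 ribozyme mutants, produced by rounds of error-prone PCR, self-cleaved while being transcribed with T7 RNA polymerase for 5 hours at 37°C and during a subsequent 15 min DNase I step before EDTA was added. Sequencing of template-switched cDNA on Illumina gave cleaved and total reads, and DNA sequencing assigned barcodes to variants. Each variant's relative activity is its cleaved/total read fraction divided by the unmutated ribozyme's fraction, averaged across three batches. A variant needed a minimum of 5 reads.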
row,Variant,self-cleavage
1,UAACAGGGGGCCUCAGCAGAAGCGUUCACGUCGCAGCCCCUGUCAGGUUCUGGUGAAUCUGCGAAUUCUGCUGCAUAUCUC,1.15
2,UAACAGGGGGCCUCAGCAGAAGCGUUCCCGUCGCAGCCCCUGUCAGAUUCUGGUGAAUCCGCGAGUUCUGCGGUAUAUCUC,0.11
3,UAACAGGGGGCCUCAGCAGAAGCGUUCGCGUCGCAGCCCCUGUCAGAUUCUGGUGGAUCUGCGAAUUCUGCCGUAUAUCUC,0.41
4,UAACAGGGGGCCUCAGCAGAAGCGUUCACGUCGCAGCCCCUGUCAGGAUCUGGUGAAUCUGCGAAUUCUGCUGUAUAUCUC,0.17
5,UAACAGGGGGCCUCAGCAGAAGCGUUCGCGUCGCGGCCCCUGUCAGAUUCUGGUGAAUCUGCGAAUUCUGCUGUAUAUCUC,0.67
6,UAACAGGGGGCCUCAGCAGAAGCGUUCACGUCGCGGCCCCUGUCAGAUUCCGGUGAGUCUGCGAAUUCUGCUGUAUAUCUC,1.29
7,UAACAGGGGGCCUCAGCAGAAGCGUUCACGUCGCGGCCCCUGUCAGAUUCUGGUGAAUCUGCGAAUUCUGCUGUACAUCUC,1.26
8,UAACAGGGGGCCUCAGCAGAAGCGUUCACGUCGCGGCCCCUGUCAGAUUCUGGUGAAUCUGCGAAUUCUGCUGUAUAACUC,1.46
9,UAACAGGGGGCCUCAGCAGAAGCGUUCACGUCGCGGCCCCUGUCAGAUUCUGGUGAAUCUGCGAAUUCUGCUGUAUACCUC,1.29
10,UAACAGGGGGCCUCAGCAGAAGCGUUCACGUCGCGGCCCCUGUCAGAUUCUGGUGAAUCUGCGAAUCCUGCCGUAUAUCCC,0.58
11,UAACAGGGGGCCUCAGCAGAAGCGUUCGCGUCGCAGCCCCCGUCAGAUUCUGGUGAAUCUGCGAAUUCUGCUGUAUAUGUC,1.17
12,UAACAGGGGGCCUCAGCAGAAGCGUUCACGUCGCGGCCCCCGUCAGAUUCUGGUGGAUCUGCGAAUCCUGCUGUAUAUCUC,0.51
13,UAACAGGGGGCCUCAGCAGAAGCGUUCCCGUCGCUGCCCCUGUCAGAUUCUGGUGAAUCUGCGAAUCCUGCUGUAUAUCUC,0.07
14,UAACAGGGGGCCUCAGCAGAGGCGUUCACGUCGCAGCCCCUGUCAGAUUCUGGUGAAUCCGCGAACUCUGCUGUGAAUCUC,0.11
15,UAACAGGGGGCCUCAGCAGAAGCGUUCACGUCGCAGCCCCUGUCGGAUUCUGGUGAAUCUGCGAAUUCUGCAGUAUAUCAC,0.57
16,UAACAGGGGGCCUCAGCAGAGGCGUUCACGUCGCAGCCCCUGUCAGAUUCUGGUGAAUCCGCGAAUUCUGCUGUAUAUCUC,0.26
17,UAACAGGGGGCCUCAGCAGAAGCGUUCACGUCGCAGCCCCUGUCGGAUUCUGGUGGAUCUGCGAGUUCUGCUGUAUAUCUC,0.16

row,Variant,self-cleavage
1,UAACAGGGGGCCUCAGCAGAAGCGUUCGCGUCGCAGCCCCUGUCAGAUUCUGGAGAAUCUGCGAAUUCAGCUGUAUAUCUC,0.17
2,UAACAGGGGGCCUCAGCAGAAGCGUUCACGUCGCAGCCCCUGUCAGUUUCUGGUGAAUCUGCGAGUUCUGCUGUAUAUCCC,0.05
3,UAACAGGGGGCCUCAGCAGAAGCGUUCUAGUCGCAGCCCCUGUCGGAUUCUGGUGAAUCUGCGAAUUCUGCUGUAUACCUC,0.07
4,UAACAGGGGGCCUCAGCAGAAGCGUUCACGUCGCGGCCCCUGUCAGAUUCUGGUGGAUCUGCGAUUUCUGCUGUAUAUCUC,0.75
5,UAACAGGGGGCCUCAGCAGAAGCGUUCGCGUCGCAGCCCCUGACAGAUUCAGGUGAAUCUGCGAAUUCUGCUGUAUAUCUC,0.33
6,UAACAGGGGGCCUCAGCAGAUGCGCUCACGUCGCAGCCCCUGUCAGAUUCCGGUGAAUCUGCGAAUUCUGCUGUAUAUCUC,0.06
7,UAACAGGGGGCCUCAGCAGAAGCGUUCUCGUCGCAGCCCCUGUCAGAUUCUGGUGAAUCUGCGAAUUCUGCUGUGUAUCUC,1.07
8,UAACAGGGGGCCUCAGCAGAAGCGUUCGCGUCGCAGCCCCUGUCAGAUUCUGGUGAAUCAGCGAACUCUGCUGUAUAUCUC,0.13
9,UAACAGGGGGCCUCAGCAGAAGCGUUCUCGUAGCAGCCCCUGUCAGAUUCCGGUGAAUCUGCGGAUUCUGCUGUAUAUCUC,0.08
10,UAACAGGGGGCCUCAGCAGAAGCGUUCACGUCGCAGCCCCUGUCGGAUUCUGGUGAAUCUGCGAAUUCUGCUGUAUAUCUU,1.09
11,UAACAGGGGGCCUCAGCAGAAGCGUUCGCGUCGCAGCCCCUGUCAGAUCCUGGUGAAUCCGCGAAUUCUGCUGUAUAUCUC,0.29
12,UAACAGGGGGCCUCAGCAGAUGCGUUCACGCCGCAGCCCCUGUCAGAUUCUGGUGAAUCUGCGAAUUCUGCUGUAUAUCUC,0.46
13,UAACAGGGGGCCUCAGCAGAAGCGUUCGCGUCGCAGCCCCUGUCAGAUUCUGGUGAAUCUGUGAAUUCUGCCGUAUAUCAC,0.08
14,UAACAGGGGGCCUCAGCAGAAGCGUUCACGUCGCGGCCCCUGUCAGACUCUGGUGGAUCUGCGAAUUCUGCCGUAUCUCUC,1.02
15,UAACAGGGGGCCUCAGCAGAAGCGUUCACGUCGCAGCCCCUGUCAGGUUCUGGUGAAUCUGCGGAUUCUGCCGUAUAUCCC,0.47
16,UAACAGGGGGCCUCAGCAGAAGCGUUCGCGUCGCAGCCCCUGUCGGAUUCUGGUGAAUCUGCGGAUUCUGCUGUUUAUCUC,0.17
17,UAACAGGGGGCCUCAGCAGAAGCGUUCUCGUCGCAGCCCGUGUCAGAUUCUGGUGAACCUGCGAAUUCUGCUGUAUAUCUC,0.02
